Results as given in PubChem BioAssay AID1963576 (National Center for Advancing Translational Sciences (NCATS), 2024).
In all, about 46,000 compounds went through this assay and about 60 (0.1%) were called active. Inconclusive results (about 3%) are left out. Calls follow the shape of the dose curve; as a rule, active = well fitted inhibition curve with a large enough effect; inconclusive = small, poorly fitted or top-dose-only effect; inactive = no such curve, though single readings can be large or run the other way. The list shows a part of the results.

Experiment: Primary qHTS assay for Inhibitors of ovarian cancer metastasis using an organotypic tumor microenvironment (TME) model. Also: nearly all actives have a fitted effect of over 65% in size.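 As to activity change, negative = inhibition: plate controls were DMSO wells for no effect and tomatine positive control wells for full effect.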
Details: SKOV3ip1-GFP adhesion/invasion on 3D omental model, fluorescence; series mostly up to 45.8 µM; activity change, negative = inhibition: at the top concentration
Outline: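 Primary human omental fibroblast/mesothelial 3D culture pre-formed 48 h. SKOV3ip1-GFP cells added with compounds (0.36-46 umol/L), incubated 2 h RT/16 h 37 C, fixed; GFP cells quantified at 488/509 nm.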

Activity change, negative = inhibition, inactive:
O=C(NC1CCCC1)c1ccc(CSc2nc3cccnc3n2Cc2ccc(F)cc2)cc1 9.43%
CCOc1ccc(NC(=O)CSc2ncc3c(n2)-c2ccccc2N(Cc2ccccc2C)S3(=O)=O)cc1 6.58%
CC(=O)c1ccc(N2CCN(S(=O)(=O)c3ccc4c(c3)C(C)(C)C(=O)N4)CC2)cc1 0.288%
CCCn1c2ccccc2c2cnn(CC(=O)N(CCCOC)Cc3ccco3)c(=O)c21 -3.7%
COc1ccc(CCNC(=O)CS(=O)Cc2nc(-c3ccccc3F)oc2C)cc1OC (stereo not given) -1.7%
COc1cc(NC(=O)CSc2ncccc2C(=O)OC(C)C)cc(OC)c1 -12.5%
Cc1cc(C(=O)NCc2ccccc2Cl)c2c(C)nn(-c3ccccc3)c2n1 -6.26%
COc1ccc(CCNC(=O)c2ccc3c(c2)ncn3-c2ccc(C)cc2C)cc1OC -4.43%
CCc1ccc(S(=O)(=O)c2nnn3c2nc(NC(C)C)c2sccc23)cc1 -6.01%
Cc1c(C(=O)N2CCN(c3ccccc3)CC2)sc2nc3n(c(=O)c12)CCC3 1.23%
CC(C)CCNC(=O)CN1C(=O)CSc2ccc(S(=O)(=O)N3CCCCC3)cc21 -11.7%
CC(=O)c1cc2c(cc1N/C(=N/S(=O)(=O)c1ccc(C)cc1)c1ccc(F)cc1)OCO2 10.3%
CCOc1ccc(-c2nc(CSCC(=O)NCc3ccc(Cl)cc3)c(C)o2)cc1 -27.4%
CCC(C(=O)NCCc1ccccc1)n1nc(C)n2c(cc3sccc32)c1=O (stereo not given) 3.32%
CCOC(=O)c1c(-c2ccc(C)cc2)csc1NC(=O)c1nc(SC(C)C)ncc1Cl -4.66%
CCc1cc2c(cc3c(=O)n(CC(=O)NC4CCC(C)CC4)ncn32)s1 (stereo not given) 20.4%
COc1cc(OC)c(NS(=O)(=O)c2ccc3c(c2)CCCN3C(C)=O)cc1Cl -5.15%
CCOc1ccccc1NC(=O)c1c(NC(=O)c2cccc(C)c2)sc2c1CCC2 12.1%
Cc1ccc(-c2cc(C(F)(F)F)n3nc(C(=O)NCC45CC6CC(CC(C6)C4)C5)cc3n2)cc1 -8.61%
CCOc1ccc(N2CC(NC(=O)c3ccc(S(=O)(=O)N4CCCCC4)cc3)CC2=O)cc1 (stereo not given) -7.02%
O=C(Cc1ccccc1)NCCc1csc2nc(-c3ccc(Cl)cc3)nn12 3.7%
COc1ccc(CNC(=O)c2c3c(nc4ccccc24)C(=O)N(C2CCCCC2)C3)cc1 30.3%
COC(=O)c1ccc(CSc2nc3c([nH]c4ccccc43)c(=O)n2-c2ccc(OC)cc2)o1 -7.05%
CCOC(=O)c1scc(-c2ccccc2)c1S(=O)(=O)Nc1cc(Cl)c(OC)cc1OC -2.18%
CC1CCc2c(sc(NC(=O)C3c4ccccc4Oc4ccccc43)c2C(=O)OC(C)C)C1 (stereo not given) 2.19%
Cc1ccc(S(=O)(=O)NCc2nc(-c3cccc(C)c3)no2)cc1 -0.642%
COc1ccccc1Nc1nn2c(=O)c3ccc(C(=O)N4CCCC(C)C4)cc3nc2s1 (stereo not given) -3.45%
Cc1ccc(-n2nc(C)c3c(C(=O)NCc4ccccc4)cc(C4CC4)nc32)cc1 -4.75%
COc1ccccc1CNS(=O)(=O)c1ccc2c(c1)NC(=O)CC(=O)N2 5.08%
COc1ccc(C(=O)Nc2nnc(S(=O)(=O)N(CC(C)C)c3ccc(C)cc3)s2)cc1OC -2.24%
CCOC(=O)c1sc(NC(=O)C2c3ccccc3Oc3ccccc32)c(C(=O)OCC)c1C 0.94%
O=C(CSc1nc(=O)n(CCN2CCOCC2)c2c1CCC2)Nc1ccccc1 0.448%
CC(=O)c1ccc(NC(=O)COc2ccccc2-c2nc(-c3cccc(C)c3)no2)cc1 2.46%
Cc1ccccc1Nc1nc(-c2cccc(Cl)c2)c2c(n1)-c1ccccc1OC2 6.25%
CC(NC(=O)Cn1c(=O)oc2cc(S(=O)(=O)NCc3ccccc3)ccc21)c1ccccc1 (stereo not given) 4.46%
O=C(Nc1ccc(S(=O)(=O)Nc2ncccn2)cc1)c1ccccc1Cl -2.29%
Cc1ccc2c(c1)N(C(=O)CCC(=O)NCc1ccccc1Cl)CC(C)O2 (stereo not given) -3.41%
COC(=O)c1cccnc1-n1c(=O)c2cccnc2n(CC(=O)Nc2ccc(C)cc2C)c1=O 4.08%
Cn1c(=O)c2c(ncn2CC(=O)Nc2cccc(Cl)c2Cl)n(C)c1=O -6.21%
CN(C(=O)Cn1cc(S(=O)(=O)Cc2ccccc2Cl)c2ccccc21)c1ccccc1 20.4%
Cc1cccc(NC(=O)Nc2nnc(N(C)Cc3ccccc3)s2)c1 6.9%
CC(=O)c1ccc(NC(=O)c2sc(-n3nc(C)c(Cc4ccccc4)c3C)nc2C)cc1 6.43%
Cc1ccc(Cl)cc1N1CCN(S(=O)(=O)c2ccc3c(c2)CC(C)N3C(=O)C2CCC2)CC1 (stereo not given) 3.25%
Cc1noc(/C=C/c2cccs2)c1S(=O)(=O)N1CCC(C(=O)NCc2ccccc2Cl)CC1 3.81%
CCN(Cc1ccccc1)Cc1c(O)ccc2c(=O)c(-c3ccc(Cl)cc3Cl)coc12 2.47%
COc1cccc(Cn2c(CNC(=O)c3cc([N+](=O)[O-])ccc3Cl)nc3cccnc32)c1 -61.6%
Cc1ccccc1C(=O)NC1(C(F)(F)F)C(=O)Nc2c1c(=O)[nH]c(=O)n2-c1ccc(F)cc1 (stereo not given) 1.43%
CCCc1cnc2c(c1SCC(=O)Nc1ccc(C)c(Cl)c1)c(=O)n(C)c(=O)n2C -9.31%
CCCCNC(=O)CCCn1c(=O)c2ccccc2n(CC(=O)Nc2ccccc2OCC)c1=O 4%
COc1ccc(CNc2ncnc3onc(-c4ccc(F)cc4)c23)cc1 -3.82%
CCOc1ccccc1NC(=O)N1CCc2c(sc(C)c2CC)C1c1ccccc1 (stereo not given) 4.71%
Cc1ccc(NC(=O)c2cc(S(=O)(=O)N3CCc4ccccc43)cn2C)c(Cl)c1 -28.5%
CCc1cccc(NC(=O)C2CCC(CNS(=O)(=O)c3ccc(Br)s3)CC2)c1 (stereo not given) -9.84%
c1ccc(CN2CCN(c3ncnc4c3cnn4-c3ccccc3)CC2)cc1 -13.2%
O=C(Cn1c(=O)n(-c2ccc(Cl)cc2)c(=O)c2sc3ccccc3c21)NC1CCCC1 -5.4%
Cc1ccc(S(=O)(=O)Cc2ccc(C(=O)N3CCN(c4cccc(Cl)c4)CC3)o2)cc1 -10.3%
COC(=O)c1ccccc1NC(=O)c1cc2cc(C)ccc2n1C -25.7%
CCOc1ccc(-c2c(C)nn3c(C)c(C(=O)NCCc4ccc(Cl)cc4)cnc23)cc1OCC -6.05%
Cc1ccccc1OCC(=O)Nc1cccc(C(=O)OCc2cc(=O)n3c(C)csc3n2)c1 0.256%
O=C(NCCc1ccccc1)C1CCC(CNS(=O)(=O)c2ccc(Cl)cc2)CC1 (stereo not given) 0.277%
Cc1ccc(C)c(N2CCN(C(=O)NCc3noc4ccc(C)cc34)CC2)c1 -9%
Cc1ccccc1Cn1c2ccccc2c2cnn(CC(=O)NCc3ccccn3)c(=O)c21 -6.42%
Cc1ccc(C)c(S(=O)(=O)c2nnn3c2nc(NC2CCCCC2)c2sccc23)c1 7.63%
CC1CCN(S(=O)(=O)c2ccc3c(ccn3CCC(=O)NCc3ccccc3F)c2)CC1 -9.08%
CCOC(=O)c1cccc(NC(=O)C2Cc3ccccc3N2C(=O)c2ccccc2)c1 (stereo not given) -0.0495%
O=C(Nc1ccc2c(c1)N(C1CCCC1)C(=O)c1ccccc1S2)c1ccccc1F -7.96%
Cc1ccc(C)c(Cn2c(=O)n(C(C)C)c(=O)c3oc4ccccc4c32)c1 1.73%
Cc1ccccc1NC(=O)CCS(=O)(=O)c1cc(Br)cc2c1N(C(=O)C1CC1)CC2 14.3%
CCc1nn(CC(=O)N2CCCCC2)c(=O)c2cc3sc(C)cc3n12 1.27%
Cc1ccccc1CNC(=O)CN1C(=O)C2CCCCN2c2ccc(C(=O)N3CCCC3)cc21 (stereo not given) 11.7%

outcome, inactive:
CC(C)c1nc2ccc(C(=O)NC(C)c3ccccc3)cc2o1 (stereo not given)
Oc1ccccc1-c1nc(/C=C/c2ccc(F)cc2)nn1-c1ccccc1
COc1ccc(-c2nc(SCCOc3ccccc3Cl)n3[nH]c(=O)cc3n2)cc1
CCN(CC)CCNC(=O)c1ccc2c(=O)n3nc(Nc4ccccc4OC)sc3nc2c1
O=S1(=O)c2ccccc2N(Cc2cccc(Cl)c2)c2ccccc21
COc1ccc(S(=O)(=O)N2CCN(Cc3nc4ccc(C)cc4o3)CC2)cc1Cl
CCCc1nc(SCc2cc(=O)c3ccc(C)c(C)c3[nH]2)n[nH]1
CCc1ccccc1NC(=O)C1CCCN(C(=O)c2cnn(-c3ccccc3)c2-n2cccc2)C1 (stereo not given)
Cc1ccc(NC(=O)c2ccc(-n3c(C)nnc3C)cc2)cc1F
COc1cc2nc(NCc3ccc(C)cc3)n3nc(-c4ccccc4)nc3c2cc1OC
COc1cccc(CNC(=O)c2nn(-c3ccc(C)cc3)c(=O)c3c2c2ccccc2n3C)c1
COc1ccc(C2CC(=O)N(Cc3cccc(F)c3)c3ccccc3S2)cc1 (stereo not given)
CCn1cc(C(=O)NCc2ccccc2Cl)c(=O)c2cc(S(=O)(=O)N3CCc4ccccc4C3)ccc21
COc1ccccc1CNC(=O)CCCn1c(=O)c2ccccc2n(CC(=O)Nc2c(C)cc(C)cc2C)c1=O
COCCCNC(=O)c1ccc2c(c1)N(Cc1ccccc1)C(=O)c1ccccc1S2
COc1ccc(NC(=O)CSc2nnc(NC(=O)Nc3ccccc3)s2)cc1OC
O=C(Nc1cc(C(F)(F)F)ccc1Cl)c1cc(-c2ccc3c(c2)OCCO3)on1
COc1ccc(-c2nn3c(-c4ccccc4C)nnc3c3ccccc23)cc1
CCOCCCNc1ncnc2onc(C)c12
CCc1nc2cccnc2n1-c1ccc(CC(=O)Nc2cccc(C)c2C)cc1
CCSc1ccccc1C(=O)Nc1ccc(-c2nc3ccccc3s2)c(O)c1
CCc1ccc(-n2nc(CO)c(C(=O)NCCCc3ccccc3)n2)cc1
Cc1ccc(-c2nc(NC(=O)CSc3nc(C)nc4sc5c(c34)CCCC5)ns2)cc1
Cc1ccc(Nc2nc3ccccc3c3nncn23)c(Cl)c1
CCOc1ccc(C(=O)NC2CC(=O)N(c3ccc(C)cc3)C2)cc1OCC (stereo not given)
